Measurements taken from PubChem BioAssay AID1159614 (National Center for Advancing Translational Sciences (NCATS), 2016).
About 65 (0.1%) of roughly 45,000 compounds were called active. Calls follow the shape of the dose curve; as a rule, active = well fitted activation curve with a large enough effect; inconclusive = small, poorly fitted or top-dose-only effect; inactive = no such curve, though single readings can be large or run the other way. Some of the results follow.

Target: Galactocerebrosidase (Homo sapiens) (UniProt P54803)
Chain of UniProt P54803 (P54803 whole entry, looked up): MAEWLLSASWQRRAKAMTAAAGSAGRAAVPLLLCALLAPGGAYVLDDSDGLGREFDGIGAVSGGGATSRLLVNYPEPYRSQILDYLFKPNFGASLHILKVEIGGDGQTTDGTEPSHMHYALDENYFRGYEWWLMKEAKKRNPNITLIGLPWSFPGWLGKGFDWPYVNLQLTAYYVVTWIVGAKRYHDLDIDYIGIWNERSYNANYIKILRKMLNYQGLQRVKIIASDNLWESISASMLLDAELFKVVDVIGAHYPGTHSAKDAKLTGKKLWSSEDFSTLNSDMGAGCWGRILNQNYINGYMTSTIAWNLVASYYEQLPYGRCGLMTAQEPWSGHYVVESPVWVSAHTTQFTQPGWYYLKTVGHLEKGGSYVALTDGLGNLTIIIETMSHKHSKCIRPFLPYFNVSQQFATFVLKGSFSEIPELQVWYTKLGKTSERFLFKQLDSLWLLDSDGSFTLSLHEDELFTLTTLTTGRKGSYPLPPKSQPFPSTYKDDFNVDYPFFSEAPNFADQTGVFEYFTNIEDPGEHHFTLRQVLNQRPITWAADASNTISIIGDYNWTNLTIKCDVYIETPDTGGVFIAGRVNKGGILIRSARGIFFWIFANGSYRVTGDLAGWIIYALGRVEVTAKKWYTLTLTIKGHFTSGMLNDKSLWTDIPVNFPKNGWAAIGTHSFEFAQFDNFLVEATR
Test: A Novel Cell-Based Assay to Identify Small Molecules for B -Galactocerebrosidase; also: 0% is about no effect; nearly all actives have a fitted effect of over 65% in size
Conditions: 145M-Twi-hGALC-G270D cells (Twitcher mouse brain line with human GALC G270D), HMU-beta-Gal fluorescence, 48 h; series mostly up to 57.5 µM; activation: at the top concentration
Procedure, shortened: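 Brain-derived Twitcher mouse 145M-Twi cells stably expressing human GALC-G270D or wild-type GALC, treated live, then residual GALC activity read by fluorescence of HMU-b-Gal substrate (0.1 mM final) in citrate-phosphate buffer pH 5.2 with sodium taurocholate. Signal increase indicates enhancement.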

activation, inactive:
O=C(NCCN1CCCCC1)c1ccc(Cn2c(SCc3ccccc3)nc3cccnc32)cc1 -25.9%, CC1(c2ccc(Cl)cc2)CC(C)(C)N(C(=O)c2cccc(F)c2)c2ccccc21 (stereo not drawn) -14.1%, COCCCn1c(-c2ccc(S(=O)(=O)N3CCOCC3)cc2)csc1=Nc1ccccc1 -31.5%, COc1ccc(CNC(=O)c2cc3sccc3n2Cc2ccc(C)cc2)cc1 -14.4%, Cc1ccc2c(CNCc3ccc(C)o3)c(C(=O)O)n(Cc3ccc(F)cc3)c2c1 -4.8%, CCOc1ccc(CNC(=O)c2cc(-c3ccc(Cl)s3)nc3ccccc23)cc1 -6.63%, O=C(c1ccc2c(c1)N(Cc1ccc(Cl)cc1)C(=O)c1ccccc1S2=O)N1CCCCC1 (stereo not drawn) -12.2%, COc1ccc(C(=O)Oc2c(Sc3ccc(C)cc3)c(C)nn2C(C)(C)C)cc1OC -33.6%, COc1ccccc1NC(=O)Cn1c(=O)n(CC(=O)NCc2ccccc2Cl)c(=O)c2sccc21 -6.67%, CCc1c(C)[nH]c2c1C(=O)C(CN1CCOCC1)CC2 (stereo not drawn) -12.3%, Cc1ccc(C(=O)NC2(C(F)(F)F)N=C(c3ccccc3)N(Cc3ccccc3)C2=O)cc1 (stereo not drawn) -17.5%, Cc1ccc(C(=O)Oc2cc(-c3ccc4c(c3)OCO4)cc(=O)c3c(C)oc(C)c23)cc1 -6.53%, Cc1ccc(NC(=O)C2CCN(c3nc(-c4ccc(C(C)C)cc4)no3)CC2)c(Cl)c1 -15%, CC(=O)c1ccc(NS(=O)(=O)c2ccc(-n3cccn3)cc2)cc1 -31.1%, CCOc1ccc(NC(=O)Cn2c(=O)n(CCCS(=O)(=O)C3CCCCC3)c(=O)c3ccccc32)cc1 -13.7%, COc1ccc(CCNC(=O)CCCn2nc(C)c3sc4ccccc4c3c2=O)c(OC)c1 -12.1%, Nc1ccc(O)c([N+](=O)[O-])c1 -32.6% [at 114 µM], Cc1cccc(NC(=O)CCNS(=O)(=O)c2ccc3c(c2)CCN3C(=O)C2CC2)c1 -33.9%, CCO/C([O-])=N/c1c[n+](N2CCOCC2)no1 -6.91%, Cc1ccc(NC(=O)Cn2cc(C(=O)C3CCCCC3)c3ccccc32)cc1 -7.96%, CCOc1ccc(-c2cc(CCCC(=O)NCCc3cc(OC)c(OC)c(OC)c3)no2)cc1 17.4%, CCOC(=O)C1CCN(C(c2ccc(C)cc2)c2c(O)cc(C)n(CCOC)c2=O)CC1 (stereo not drawn) -5.53%, Cc1ccc(OC(=O)CSc2nnc(-c3ccc4c(c3)OCO4)o2)cc1 -15.9%, Cc1cccc(N(C)C(=O)Cc2c(C(=O)O)[nH]c3ccccc23)c1 -3.93%, Cc1ccc(-n2ncc3c(N4CCC(Cc5ccccc5)CC4)ncnc32)cc1C -16.5%, COc1ccc(N2CCN(C(=O)C3CCN(S(=O)(=O)c4cn(C)cn4)CC3)CC2)cc1 -13.5%, Cc1ccc(C(=O)Nc2ccccc2)cc1S(=O)(=O)Nc1ccccc1 -11.9%, COC(=O)c1c(C)oc2ccc(N(C(=O)c3ccncc3)S(=O)(=O)c3cc(C)ccc3C)cc12 -4.65%, Cc1ccc(NC(=O)C2CCC(CNS(=O)(=O)c3cccc4nsnc34)CC2)c(Cl)c1 (stereo not drawn) -25.3%, CCOC(=O)c1cnc2cc(F)c(F)cc2c1Nc1ccccc1O -3.86%, Cc1cccc(C(=O)Nc2sc3c(c2C(=O)NC(C)C)CCCC3)c1 4.49%, Cn1c(=O)c2c(nc(NCCc3ccccc3)n2Cc2ccc(Cl)cc2)n(C)c1=O 4.89%, CCOC(=O)c1cc(S(=O)(=O)NCc2cccc(Cl)c2)[nH]n1 -28.7%, COc1cc(OC)c(NC(=O)c2noc3c2CSc2ccccc2-3)cc1Cl -7.22%, CCCCn1c(SCC(=O)Nc2ccc(OCC)cc2)nc2ccsc2c1=O -3.59%, CC(=O)c1ccc(N2CCN(C(=O)CCc3nnc4n(C)c(=O)c5sccc5n34)CC2)cc1 0.424%, CCc1ccccc1NC(=O)[C@@H](c1ccccc1)N1Cc2ccccc2C1=O -10.1%, Cc1ccc(NC(=O)CCCn2c(=O)c3cccn3c3cccnc32)cc1C -14.9%, Cc1ncc(CO)c(CO)c1O -13%, Cc1ccc(CNC(=O)CSc2ncc3c(n2)-c2ccc(Cl)cc2N(Cc2ccccc2)S3(=O)=O)cc1 -5.38%, Cc1ccc(NS(=O)(=O)c2cc3[nH]c(=O)c(=O)[nH]c3cc2C)cc1N(C)C -17.9%, Cc1ccc(C)c(NC(=O)CSc2nnc(-c3cc4occc4n3C)n2-c2ccccc2C)c1 -13.8%, Nc1nnnn1-c1ccccc1 -8.48%, COc1ccc(C(=O)COC(=O)CCCC(=O)Nc2cc(C(F)(F)F)ccc2Cl)cc1 -9.23%, COC(=O)c1cc(Cl)ccc1NC(=O)CSc1ncc(S(=O)(=O)c2ccc(Br)cc2)c(=O)[nH]1 -12.6%, O=C(Nc1ccc(Br)cc1F)N1CCC(CN2CCc3ccccc3C2)CC1 -5.64%, CC(C)CC(=O)Nc1ccccc1OCc1cc(=O)n2ccccc2n1 -3.76%, CC(=O)N1CCc2c(sc3c2c(=O)n(-c2cc(Cl)ccc2C)c(=O)n3Cc2ccccc2F)C1 -29.5%, Cc1ccc(CNC(=O)CCCc2nnc3n(C)c(=O)c4sccc4n23)cc1 -15.3%, O=C(NCCc1ccc(Cl)cc1)c1cc(-c2ccc(Cl)cc2)n[nH]1 -20%, CCC(C)NC(=O)c1ccc2nc(CCc3ccccc3)oc2c1 (stereo not drawn) -10.7%, Cc1ccc(NC(=O)C(=O)NCC(c2ccc3c(c2)OCO3)N2CCOCC2)cc1C (stereo not drawn) -6.34%, COc1ccc(OCC(=O)OCc2cc(=O)n3nc(C4CC4)sc3n2)cc1 -7.7%, CCOC(=O)c1c(NC(=O)/C=C/c2ccc(C)cc2)sc2c1CCCC2 -1.28%, Cc1ccc(Nc2c(-c3ccc(C)s3)nc3ncccn23)cc1 -13%, CCCCOC(=O)c1ccc(NC(=O)c2cc(-c3cccs3)on2)cc1 -0.881%, O=c1[nH]c2ccc(NCc3ccc(-c4ccccc4)o3)cc2[nH]1 -10.6%, Cc1ccc(Cn2c(=O)n(CCCCC(=O)NCc3ccccc3Cl)c(=O)c3ccccc32)cc1 1.94%, Cc1cccc(OCC(=O)Nc2ccccc2C(=O)OCc2cc(=O)n3nc(C)sc3n2)c1 -11.2%, O=C(NCc1ccccc1F)C(=O)NCC(c1ccco1)S(=O)(=O)c1cccs1 (stereo not drawn) -12.3%, CCOc1ccc(NC(=O)CCCc2nnc3n(C)c(=O)c4sccc4n23)cc1 -11.7%, CC1=C(C(=O)Nc2ccccc2)C(c2cccc(Cl)c2)n2nc(SCC(=O)c3ccc(C)cc3)nc2N1 (stereo not drawn) -10.1%, O=C(CSc1nc(-c2ccccc2)nc2c1Cc1ccccc1O2)N1CCCCC1 -4.94%
